Reference: PubChem BioAssay AID485297 (National Center for Advancing Translational Sciences (NCATS), 2010)
The whole screen tested about 320,000 compounds, of which about 9,100 (2.8%) were called active. Inconclusive means that the source gave no clear call. Such entries were picked first, then a sample of the others. Calls come from the whole dose curve; as a rule, active = well fitted activation curve with a large enough effect; inconclusive = small, poorly fitted or top-dose-only effect; inactive = no such curve, though single readings can be large or run the other way. No potency is given beside an inconclusive call; the fits are too rough.
Potency is the fitted concentration of half-maximal effect; tags give direction and shape of the fitted curve.

Assay: qHTS Assay for Rab9 Promoter Activators; note: nearly all actives have a fitted effect of over 60% in size
Settings: Huh7 Rab9 promoter-luciferase reporter, luminescence, 24 h; series mostly up to 9.22 µM
Outline: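 Cells were plated at 1500 per well in reduced-serum medium with 10% FBS and left 2 h. Compound in DMSO was then added for 24 h at 37 °C. Reporter signal was read by luminescence after 10 min with luciferase detection reagent.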
With `Cn1nnnc1SCc1ccc(C(=O)Nc2nccs2)cc1` the Potency was inconclusive [activator, single point].
For `O=C(N/N=C/c1ccc(-c2cccc([N+](=O)[O-])c2)o1)c1ccccc1O`, the Potency was inconclusive [activator, single point].
With `COc1cc(C(C)=O)ccc1COc1ccc(C(=O)OC(C)C(=O)NC(N)=O)cc1OC` (stereo unspecified) the Potency was “inactive”.
In the case of `Cc1c(C(=O)Nc2ccc(F)cc2)c2ccccn2c1CCc1ccncc1`, the Potency is reported as inconclusive [activator, partial curve].
For `O=C(Nc1nc2cc3c(cc2s1)OCO3)C1CCCCC1`, the Potency was active: 1.26 µM.
For `Cc1cc(C(=O)Nc2nnc(C(F)(F)F)s2)cs1`, the Potency was inconclusive [activator, single point].
With `Cc1cccc(NC(=O)C(=O)NCC2CCCO2)c1` (stereo unspecified) the Potency was active: 0.708 µM.
With `COc1ccccc1NC(=O)CCNS(=O)(=O)c1ccc2c(c1)CC(C)N2C(=O)C1CC1` (stereo unspecified) the Potency was “inactive”.
For `Oc1c(-c2cc(-c3ccco3)[nH]n2)ccc2ccccc12`, the Potency was active: 3.16 µM.
For `COc1cc(OC)cc(C(=O)O/N=C(\N)c2cccc(C)c2)c1`, the Potency was inconclusive [activator, partial curve].
In the case of `CCn1ncc(/C=N/NC(=O)c2cc(Cl)ccc2OC)c1C`, the Potency is reported as “inactive”.
For `CSc1ccc(CNc2ccc(Cl)cc2)cc1`, the Potency was inconclusive [activator, single point].
For `COC(=O)c1ccc(CNC(=O)c2ccc3oc(C(C)C)nc3c2)cc1`, the Potency was inconclusive [activator, partial curve, poor fit].
In the case of `COc1ccc(NC(=S)NNC(=O)c2cccs2)cc1`, the Potency is reported as active: 3.98 µM.
With `CN(CC(=O)Nc1ccc(Cl)cc1)C(=O)c1cccc(S(=O)(=O)N2CCN(Cc3ccccc3)CC2)c1` the Potency was “inactive”.
With `NNc1nc2cccnc2n(CCNc2ncc(C(F)(F)F)cc2Cl)c1=O` the Potency was inconclusive [activator, single point].
For `N#C/C(=C\c1ccc([N+](=O)[O-])cc1)c1ccccn1`, the Potency was inconclusive [activator, partial curve].
In the case of `O=C(O)c1ccc(N/N=C/c2ccc(-c3ccccc3Cl)o2)cc1`, the Potency is reported as inconclusive [activator, full curve].
With `CC(=N/O)/C(C)=N\NC(=O)c1ccccn1` the Potency was inconclusive [activator, single point].
For `O=C(c1cccc(S(=O)(=O)NCc2ccccc2)c1)N1CCCC1`, the Potency was inconclusive [activator, single point].
With `CC(/C=C/c1ccccc1F)=N\NC(=O)c1cccc(F)c1` the Potency was inconclusive [activator, partial curve].
With `O=C(NCCCn1ccnc1)C(Cc1ccc([N+](=O)[O-])cc1)N1C(=O)c2ccccc2C1=O` (stereo unspecified) the Potency was “inactive”.
With `CC(C)OC(=O)c1cccc(NC(=O)c2ccccc2)c1` the Potency was inconclusive [activator, partial curve].
With `CC1(C)CCCN(Cc2c(O)ccc3c(=O)c(-c4nc5ccccc5s4)c(N)oc23)C1` the Potency was inconclusive [activator, partial curve].
With `CC(=O)Oc1cccc(NC(=O)c2ccc3c(c2)C(=O)N(CC(C)C)C3=O)c1` the Potency was “inactive”.
For `O=C(Nc1ccc(OCc2ccccc2)cc1)c1cccs1`, the Potency was active: 4.47 µM.
In the case of `CC(C)(C)c1cc(C2=CSC3=NCCN23)cc(C(C)(C)C)c1O`, the Potency is reported as “inactive”.
In the case of `O=C(c1ccc(F)cc1Cl)N(Cc1ccco1)C1CCS(=O)(=O)C1` (stereo unspecified), the Potency is reported as “inactive”.
In the case of `Cc1cc(OCC(=O)N2CCOCC2)ccc1[N+](=O)[O-]`, the Potency is reported as active: 2.82 µM.
In the case of `COc1ccccc1Nc1nnc(SCC2CCCCO2)s1` (stereo unspecified), the Potency is reported as active: 2.51 µM.
With `CCn1cc(C(=O)Nc2ccccc2C(=O)OC)c(=O)c2ccc(C)nc21` the Potency was active: 1.12 µM.
For `c1ccc(CCN2CN=C(Nc3nc4ccccc4o3)NC2)cc1`, the Potency was inconclusive [activator, single point].
In the case of `COc1cc(/C=C/C(=O)OCC(=O)Nc2ccc(NC(C)=O)cc2)cc(S(=O)(=O)N2CCc3ccccc32)c1OC`, the Potency is reported as “inactive”.
For `Cc1ccc(NC(=O)CSc2n[nH]c(-c3ccco3)n2)cc1`, the Potency was inconclusive [activator, single point].
In the case of `COc1ccc(C(=O)COc2ccccc2C#N)cc1`, the Potency is reported as active: 3.16 µM.
With `CC(C)(C)c1ccc(-c2nc(C#N)c(NCc3cccnc3)o2)cc1` the Potency was inconclusive [activator, single point].
For `N#Cc1c(NC(=O)c2cnccn2)sc2c1CCCC2`, the Potency was inconclusive [activator, partial curve].
For `O=C(c1cc(S(=O)(=O)N2CCOCC2)c(Cl)cc1Cl)N1CCCCC1CO` (stereo unspecified), the Potency was inconclusive [activator, single point].
In the case of `CC/C(Cc1ccccc1)=N/NC(=O)CNC(=O)c1ccc(Cl)cc1Cl`, the Potency is reported as “inactive”.
With `O=C(NC1CCCCC1)c1cc(-c2cccc(Cl)c2)on1` the Potency was inconclusive [activator, partial curve].
In the case of `COc1ccc(-c2cn3c4c(sc3n2)CCCC4)cc1`, the Potency is reported as active: 0.501 µM.
For `O=C(Nc1ccc(F)cc1)c1c(Cl)nc2ccccn12`, the Potency was “inactive”.
For `O=C(NNC1=C(C(=O)C(F)(F)F)CCC1)c1ccccc1O`, the Potency was “inactive”.
With `Cc1cccc(N2CCN(C(=S)c3ccccc3)CC2)c1` the Potency was inconclusive [activator, single point].
In the case of `COc1ccc2nc(NC(=O)CCNC(=O)c3ccccc3Cl)sc2c1`, the Potency is reported as “inactive”.
For `COc1cc(CN2CCNC(=O)C2CC(=O)N2CCCN(C(C)=O)CC2)cc(OC)c1` (stereo unspecified), the Potency was “inactive”.
With `CCn1c(COC(=O)CNC(=O)c2ccccc2F)nc2cc(S(=O)(=O)N(C)C)ccc21` the Potency was “inactive”.
For `COc1ccccc1N1CCN(C2CCCN(C(=O)c3oc(C)cc3C)C2)CC1` (stereo unspecified), the Potency was “inactive”.
With `CCCC(C)NC(=O)CN1C(=O)NC2(CCc3ccccc32)C1=O` (stereo unspecified) the Potency was “inactive”.
In the case of `COc1cccc(CN(C)C(=O)c2ccccc2Sc2ccccc2C#N)c1OC`, the Potency is reported as active: 0.447 µM.
With `O=C(CSCc1cccs1)N1CCCC1` the Potency was inconclusive [activator, single point].
For `Cc1c(OCc2ccc([N+](=O)[O-])cc2)ccc2c3c(c(=O)oc12)CCC3`, the Potency was active: 1 µM.
With `CCOC(=O)c1cn(-c2ccccc2)nc1-c1cccnc1` the Potency was inconclusive [activator, single point].
For `Cc1ccccc1N(C(=O)Cc1cccs1)C(C(=O)NCC1CCCO1)c1cccnc1` (stereo unspecified), the Potency was “inactive”.
In the case of `CC(C)CN1CCC(CNC(=O)CCc2nnc(Cc3c[nH]c4ccccc34)o2)CC1`, the Potency is reported as “inactive”.
In the case of `Cn1c(-c2ccc(CN3CCCCC3)o2)nc2ccccc21`, the Potency is reported as inconclusive [activator, partial curve].
With `O=c1c2ccccc2nc2ccc(NCc3ccco3)nn12` the Potency was inconclusive [activator, partial curve, poor fit].
In the case of `c1ccc(CSc2nnc(-c3c[nH]c4ccccc34)o2)cc1`, the Potency is reported as inconclusive [activator, partial curve].
For `Cc1cc(C)cc(OCC(=O)Nc2cccc(C(=O)O)c2)c1`, the Potency was inconclusive [activator, partial curve].
With `COc1ccc(CC(=O)Nc2ccc3c(c2)CCC3)cc1OC` the Potency was “inactive”.
With `O=C(NC(=S)Nc1ccccc1[N+](=O)[O-])c1ccccc1` the Potency was inconclusive [activator, partial curve].
In the case of `CCOc1ccccc1Nc1nc(N)nc(CSc2nccc(C)n2)n1`, the Potency is reported as “inactive”.
In the case of `COc1ccc(C(=S)Nc2ccc(C)cc2)cc1`, the Potency is reported as active: 2.82 µM.
With `COc1ccc(CC(=O)N(C)CC(=O)Nc2cccc(F)c2)cc1S(=O)(=O)N1CCOCC1` the Potency was “inactive”.
For `COc1ccc(/C=N/Nc2nccnc2Cl)c(OC)c1`, the Potency was inconclusive [activator, partial curve].
With `NC(=O)C1=NOC(CNc2ncc(C(F)(F)F)cc2Cl)C1` (stereo unspecified) the Potency was inconclusive [activator, single point].
For `O=C(CC(Nc1ccccc1)C(=O)O)c1ccccc1` (stereo unspecified), the Potency was active: 2.82 µM.
In the case of `COc1ccc(C(=O)N/N=C/C(Br)=C/c2ccccc2)cc1`, the Potency is reported as “inactive”.
For `O=C(c1nn(-c2ccccc2)c(=O)c2ccccc12)N1CCN(c2ccccn2)CC1`, the Potency was “inactive”.
With `CCOC(=O)c1c(C)[nH]c(N=Nc2ccccc2C)c1C` the Potency was inconclusive [activator, single point].
In the case of `O=C(N/N=C/c1ccccn1)c1ccc(Cl)cc1`, the Potency is reported as active: 3.16 µM.
For `COc1cc(C2NC(=S)NC(C)=C2C(=O)Nc2ccc(C)cc2)ccc1O` (stereo unspecified), the Potency was active: 2.24 µM.
In the case of `CC(C)(CO)NC(=O)CCCOc1ccc(Cl)cc1Cl`, the Potency is reported as inconclusive [activator, single point].
For `COC(=O)c1ccc(OC(=O)C2CSC3(C)CCC(=O)N23)cc1` (stereo unspecified), the Potency was “inactive”.
In the case of `COc1ccc2c(c1)CCc1c(C(=O)NCC(C)C)noc1-2`, the Potency is reported as active: 1.41 µM.
For `COc1ccccc1-c1nc(-c2ccc(Br)o2)no1`, the Potency was active: 0.891 µM.
For `CC(=O)CCc1c(C)nc2ccc(C)cc2c1Cl`, the Potency was “inactive”.
In the case of `O=C(Cn1cc(C(F)(F)F)cc(Cl)c1=O)NCc1ccccc1`, the Potency is reported as inconclusive [activator, partial curve].
With `Cc1ccc(NC(=O)C(=O)NCc2ccco2)c(C)c1` the Potency was inconclusive [activator, partial curve].
For `COc1ccc(OC)c(/C=N/NC(=O)c2cc3c(OC)c(OC)ccc3[nH]2)c1`, the Potency was “inactive”.
For `Clc1ccc(-c2nc3ncccn3c2Cl)cc1`, the Potency was inconclusive [activator, single point].
